This note sets out measurements from the supplement of paper PMC10126150.

This data set has as its system ATP. Put plainly: switch fluorescence ratio, 500 uM ATP over buffer (Cy3 cluster intensity, sum of 5 cycles each) (fold (ratio)); higher = stronger signal-on switching upon ATP binding; sequences stand for … in TCGTCGGCAGCGTCAGATGTGTATAAGAGACAGTTTTTTTTTTTTTTTTTTTTTTTTT…TC. Particulars: aptamer strand: ATP DNA aptamer (quencher-CACCTGGGGGAGTATTGCGGAGGAAGG + anchor), 100 nM annealed; ATP concentration: 500 uM; one replicate. The essentials:
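Clusters carrying Cy3-labelled switching strands on a modified Illumina MiSeq flow-cell were annealed to 100 nM quencher-labelled ATP aptamer and imaged in selection buffer. They were imaged again after 15 min with 500 uM ATP at 22 °C, over five buffer/ATP cycles with NaOH stripping and re-annealing in between. For each cluster, the fluorescence ratio is the summed Cy3 intensity of the target cycles divided by that of the buffer cycles, averaged per switch-domain sequence. Clusters outside 100-1000 RFU were left out.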

Sequences with one replicate were seen in a single cluster, so their values are uncertain.
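Further: ATP exposure 15 min at 22 °C before imaging.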

With CAAAATTAG, the switch fluorescence ratio turned out to be 0.994. ATCATAACGG: the switch fluorescence ratio is 1.06. TTCGGGTTCC: the switch fluorescence ratio was found to be 1.3. The figure for GGAAGCAGGC is 0.522; for TTTCTGGGAT it is 0.99; for CTGCCGGACT it is 1.07. The figure for TCGGCAGTC is 1.07; for CGGGGCGACT it is 1.03; for GGGTCGAGGA it is 0.988. Next, TACACGTATA: 1.25; CGCGACCTTA: 1.02.

As for AAACGATATC, the switch fluorescence ratio is 1.05. Next, TCACAGGTTA: 1.47; GAATCTGGGA: 0.994; GAGAAGAAGA: 1.02. Consider GGCACCCAGC, for which the switch fluorescence ratio turned out to be 1.02. Next, GGGCCATTTC: 0.959. The figure for GTCTAAATGG is 1.01. The figure for TATAACCATC is 1.02. As for AGGGTATAAG, the switch fluorescence ratio came to 0.966. For TACGGCGGC, the switch fluorescence ratio turned out to be 0.992. Next, AGCTGACGAA: 1.13; ATGCGGACG: 1.08; ACATCGGGCA: 0.991. Turning to GCAATAATTG, the switch fluorescence ratio turned out to be 1.06.

Take TTCGGGACT: the switch fluorescence ratio amounted to 1.02. The figure for GTGGGGCCTT is 0.998; for TTTTTCGAC it is 1.02. Next, TTTCCCTGGA: 1.03. Next, CGAAACGCCT: 1.08; AGGAATGTAA: 1; TCCACCGGTT: 1.18.

With TCGGGTCTGG, the switch fluorescence ratio turned out to be 0.992. ACTGGACTGG: the switch fluorescence ratio came to 1.05. TCCAACAGGG: the switch fluorescence ratio turned out to be 1.03. Next, ATGATTGATA: 1.02; TGGGCGTCGA: 0.991; GTTTTGACTT: 1.01. In the case of ATAGTCCTTT, the switch fluorescence ratio turned out to be 0.968. Next, AAGCGAGCAA: 0.861. Next, GCAGCATTGG: 1.88. Turning to AAGAATTGGT, the switch fluorescence ratio stood at 1.01. Next, TGGACACAGG: 1.01; TCGCAGCCGG: 1.01. Next, ATATCTAACC: 1.01. As for AAATGGGACA, the switch fluorescence ratio was 1.04. The figure for TAAAAGTTAC is 1.09. Next, GATTGCAGGG: 0.908. Next, CAAAATTATG: 0.964; AAGGTGAAGC: 1.04; CTCAGGCAGA: 1.28.

Regarding ACCTGGATCT, the switch fluorescence ratio was found to be 1.11. The figure for AGCGAGATAG is 1.02; for AAGTTCAGA it is 0.987; for GTAGTCATAG it is 1.06.

With TTCTCGGAAA, the switch fluorescence ratio was 0.999.

For the sequence GAATTAGTTG, the switch fluorescence ratio was 0.953.

As to GCGGATAAGT, the switch fluorescence ratio came out at 0.928. The figure for GTTAGAAGTA is 0.983.

Take GGTTAATATA: the switch fluorescence ratio was found to be 1.01.

With TCGGAGCCCC, the switch fluorescence ratio stood at 4.7. The figure for TTGTGATTAT is 0.99; for GGGGCATCTG it is 1.03; for GTCATCGTTG it is 1.01. The figure for ATTAATTAGC is 1.02; for ATCAGCATGG it is 1.04. The figure for AAGGCTAAGT is 1; for AGACAGATCT it is 0.981; for GCTCCCGATG it is 1.93. On to ATGACTACGT, for which the switch fluorescence ratio amounted to 1.01. The figure for TGAGGTTGCG is 1.05.

Consider TCATCCCAAT, for which the switch fluorescence ratio was determined as 1.93. Consider GCGTAGATTT, for which the switch fluorescence ratio turned out to be 1.03. Next, TCGTGAGGGT: 1.03; GGGGGAAGT: 0.997; GCCTTCACTC: 1.71. Next, GGGGGAATTC: 1.01; AGGGGATAT: 1.03. Next, GTAAATTTAG: 0.979.
